The supplement of paper PMC12217912
The other results are listed elsewhere or left out. The full chains were built here from the parent and the listed change. Inactive controls read about 0.05.

B1: TEV protease; numbered along this chain (parent)
chain: MGESLFKGPRDYNPISSSICHLTNESDGHTTSLYGIGFGPFIITNKHLFRRNNGTLVVQSLHGVFKVKDTTTLQQHLVDGRDMIIIRMPKDFPPFPQKLKFREPQREERICLVTTNFQTKSMSSMVSDTSCTFPSGDGIFWKHWIQTKDGQCGSPLVSTRDGFIVGIHSASNFTNTNNYFTSVPKNFMELLTNQEAQQWVSGWRLNADSVLWGGHKVFMVKPEEPFQPVKEATQL

Variants of: B1
Test: raw area under fraction-flipped curve 0-4 h after induction (AUC4h, not background-subtracted), DNA-recorder readout of cleavage of the substrate (dimensionless); higher = more cleavage of the substrate by the protease variant
Settings: temperature: 34 °C; time window: 0-4 h after rhamnose induction
Procedure: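 In vivo DNA recorder in E. coli TOP10(DE3) ΔrhaA at 34 °C. Each TEVp single-site mutant (parent TEVp 0) is paired with a single-site variant of the 7-mer TEVs (canonical ENLYFQ|S). The substrate sits between flexible linkers in a Bxb1-sfGFP-TEVs-SsrA fusion, so cleavage stabilises Bxb1 and speeds flipping of a recombination array, read by NGS. The value is the raw area under the fraction-flipped curve over 0-4 h after rhamnose induction (AUC4h), with ≥20 reads per time point. It is not background-subtracted; inactive controls average about 0.047.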
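Also: Bxb1 expression induced with 0.2% (w/v) L-rhamnose at OD600 near 0.5, cultures sampled hourly, flipped fraction per protease–substrate barcode pair counted by paired-end Illumina sequencing.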

| Variant | area with substrate EALYFQS | area with substrate ECLYFQS | area with substrate EDLYFQS | area with substrate EFLYFQS | area with substrate EGLYFQS | area with substrate EILYFQS | area with substrate EMLYFQS | area with substrate EQLYFQS | area with substrate ERLYFQS | area with substrate ESLYFQS | area with substrate ETLYFQS | area with substrate EYLYFQS | area with substrate EELYFQS | area with substrate EHLYFQS | area with substrate EKLYFQS | area with substrate ELLYFQS | area with substrate EPLYFQS | area with substrate EVLYFQS | area with substrate EWLYFQS |
| --- | --- | --- | --- | --- | --- | --- | --- | --- | --- | --- | --- | --- | --- | --- | --- | --- | --- | --- | --- |
| MGESLFKGPRDYNPISSSICHLTNESDGHTTSLYGIGFGPFIITNKHLFRRNNGTLVVQSLHGVFKVKDTTTLQQHLVDGRDMIIIRMPKDFPPFPQKLKFREPQREERGCLVTTNFQTKSMSSMVSDTSCTFPSGDGIFWKHWIQTKDGQCGSPLVSTRDGFIVGIHSASNFTNTNNYFTSVPKNFMELLTNQEAQQWVSGWRLNADSVLWGGHKVFMVKPEEPFQPVKEATQL [I110G] | 0.0553 | 0.0732 | 0.057 | 0.0684 | 0.0454 | 0.05 | 0.0402 | 0.0579 | 0.0563 | 0.0485 | 0.0679 | 0.0585 | – | – | – | – | – | – | – |
| MGESLFKGPRDYNPISSSICHLTNESDGHTTSLYGIGWGPFIITNKHLFRRNNGTLVVQSLHGVFKVKDTTTLQQHLVDGRDMIIIRMPKDFPPFPQKLKFREPQREERICLVTTNFQTKSMSSMVSDTSCTFPSGDGIFWKHWIQTKDGQCGSPLVSTRDGFIVGIHSASNFTNTNNYFTSVPKNFMELLTNQEAQQWVSGWRLNADSVLWGGHKVFMVKPEEPFQPVKEATQL [F38W] | 0.131 | 0.133 | 0.155 | 0.132 | – | 0.0883 | 0.115 | 0.125 | 0.0987 | 0.135 | – | 0.0836 | 0.124 | 0.109 | 0.122 | 0.13 | 0.128 | 0.105 | 0.087 |
| MGESLFKGPRDYNPISSSICHLTNESDGHTTSLYGIGFGPFIITNKHLFRRNNGTLVVQSLHGVFKVKDTTTLQQHLVDGRDMIIIRMPKDFPPFPQKLKFREGQREERICLVTTNFQTKSMSSMVSDTSCTFPSGDGIFWKHWIQTKDGQCGSPLVSTRDGFIVGIHSASNFTNTNNYFTSVPKNFMELLTNQEAQQWVSGWRLNADSVLWGGHKVFMVKPEEPFQPVKEATQL [P104G] | 0.0524 | 0.0596 | 0.0845 | – | 0.0517 | 0.0476 | – | 0.0482 | – | 0.0552 | 0.057 | 0.0552 | 0.0551 | 0.0486 | 0.0469 | 0.0609 | 0.0399 | 0.0467 | 0.0507 |
| MGESLFKGPRDYNPISSSICHLTNESDGHTTSLYGIGFGPFIITNKHLFRRNNGTLVVQSLHGVFKVKDTTTLQQHLVDGRDMIIIRMPKDFPPFPQKLKFREPQREERIMLVTTNFQTKSMSSMVSDTSCTFPSGDGIFWKHWIQTKDGQCGSPLVSTRDGFIVGIHSASNFTNTNNYFTSVPKNFMELLTNQEAQQWVSGWRLNADSVLWGGHKVFMVKPEEPFQPVKEATQL [C111M] | 0.11 | 0.107 | 0.0964 | – | – | 0.0843 | – | – | 0.0935 | 0.101 | – | 0.101 | 0.109 | – | 0.112 | 0.0811 | 0.102 | 0.0885 | 0.0981 |
| MGESLFKGPRDYNPISSSICHLTNEPDGHTTSLYGIGFGPFIITNKHLFRRNNGTLVVQSLHGVFKVKDTTTLQQHLVDGRDMIIIRMPKDFPPFPQKLKFREPQREERICLVTTNFQTKSMSSMVSDTSCTFPSGDGIFWKHWIQTKDGQCGSPLVSTRDGFIVGIHSASNFTNTNNYFTSVPKNFMELLTNQEAQQWVSGWRLNADSVLWGGHKVFMVKPEEPFQPVKEATQL [S26P] | 0.0736 | 0.0701 | 0.0702 | 0.0656 | – | 0.0579 | 0.0723 | 0.0769 | 0.0631 | – | 0.0604 | – | 0.0895 | 0.0647 | – | 0.0531 | 0.0644 | 0.0642 | 0.0636 |
| MGESLFKGPRDYNPISSSICHLTNESDGHTTSLYGIGFGPFIITNKHLFRRNNGTLVVQSLHGVFKVKDTTTLQQHLVDGRDMIIIRMPKDFPPFPQKLKFREPQREERICLVTTNFQTKSMSSMVSDTSCTFPSGDGIFWKHWIQTKDGQCGSPLVSTRDGFIVGIHSASNFTNTNNYFTSVPKNFMELLTNQEAQQWVSGWRLNADSVLWGGHKVFMVKPEEPFVPVKEATQL [Q227V] | 0.135 | 0.116 | 0.136 | – | – | 0.0684 | – | 0.099 | 0.117 | 0.122 | 0.133 | 0.0743 | 0.127 | 0.12 | – | – | 0.0815 | 0.11 | 0.123 |
| MGESLFKGPRDYNPISSSICHLTNESDGHTTSLYGIGFGPFIITNKHLFRRNNGTLVVQSLHGVFKVKDTTTLQQHLVDGRDMIIIRMPKDFPPFPQKLKFREPQREERICLVTTNFQTKSMSSMVSDTSCTFPSGDGIFWKHWIQTKDGQCGSPLVSTRDGFIVGIHSASNFTNTNNYFTSVPKNFMELLTNQEAQQWVSGWRLNADSVLWGGHKVFMVKPEEPFQPVKEATNL [Q234N] | 0.129 | 0.0967 | 0.156 | 0.103 | 0.118 | 0.0543 | 0.128 | 0.112 | 0.0957 | 0.103 | – | 0.0896 | 0.148 | – | 0.118 | 0.0997 | 0.11 | 0.103 | 0.0939 |
| MGESLFKGPRDLNPISSSICHLTNESDGHTTSLYGIGFGPFIITNKHLFRRNNGTLVVQSLHGVFKVKDTTTLQQHLVDGRDMIIIRMPKDFPPFPQKLKFREPQREERICLVTTNFQTKSMSSMVSDTSCTFPSGDGIFWKHWIQTKDGQCGSPLVSTRDGFIVGIHSASNFTNTNNYFTSVPKNFMELLTNQEAQQWVSGWRLNADSVLWGGHKVFMVKPEEPFQPVKEATQL [Y12L] | 0.12 | 0.121 | 0.116 | – | – | 0.102 | 0.116 | 0.113 | 0.104 | 0.116 | – | – | 0.18 | – | 0.0857 | 0.069 | – | – | – |
| MGESLFKGPRDYNPISSSICHLTNESDGHTTSLYGIGFGPFIITNKHLFRRNNGTLVVQHLHGVFKVKDTTTLQQHLVDGRDMIIIRMPKDFPPFPQKLKFREPQREERICLVTTNFQTKSMSSMVSDTSCTFPSGDGIFWKHWIQTKDGQCGSPLVSTRDGFIVGIHSASNFTNTNNYFTSVPKNFMELLTNQEAQQWVSGWRLNADSVLWGGHKVFMVKPEEPFQPVKEATQL [S60H] | 0.124 | 0.149 | 0.125 | – | 0.144 | – | 0.152 | 0.113 | 0.115 | 0.107 | 0.11 | – | 0.142 | 0.106 | 0.0965 | 0.0803 | 0.121 | 0.105 | – |
